# In the supplement of paper PMC4723716:
# ± gives the uncertainty stated by the source. Over roughly 9,900 compounds, “viability index relative to DMSO control” has its median near 1; the lowest 2% begin near 0.85. The list shows a part of the results.
# System: Plasmodium falciparum NF54 stage V gametocytes
# Assay: viability index relative to DMSO control (fraction); higher = less gametocyte killing
# Conditions: 2.5 µM, incubation time: 72 h
# Outline: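 Compound at 2.5 µM was incubated for 72 hr at 37°C under low oxygen with P. falciparum NF54 stage V gametocytes (0.75% gametocytemia, 1.25% hematocrit, 10 µl, serum-free screening medium) in 1,536-well plates. Staining used 3 µl of 2.5 µM MitoTracker Red CMXRos plus 0.13% saponin for one to two hours, and red particles of 20–70 µm2 were counted in one imaged field per well. Each viability index is that count relative to the plate mean of solvent-only wells.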
# [1] = library set: Broad Institute DOS
# [2] = library set: Broad Institute Blood Stage
structure (smiles),measurement,setting,value
CN1C(=O)c2cc(NS(C)(=O)=O)ccc2OC[C@H]2O[C@@H](CC(=O)NCc3ccccc3)CC[C@@H]21,viability index,[1],1.14 ± 0.038
COc1ccc(C#Cc2ccc([C@@H]3[C@H](CO)N4C(=O)CN(C(=O)c5ccc(F)cc5)C[C@@H]34)cc2)cc1,viability index,[1],1 ± 0.017
CC(C)[C@@H]1CCc2cnnn2COC[C@@H](Cc2ccccc2)NC1=O,viability index,[1],1.02 ± 0.038
C[C@H](CO)N1C[C@H](C)[C@H](CN(C)C(=O)C2CCCCC2)Oc2ncc(C#Cc3cccc(F)c3)cc2C1=O,viability index,[2],0.62 ± 0.074
COCC(=O)Nc1ccc2c(c1)[C@H]1C[C@@H](CC(=O)N[C@@H](C)c3ccccc3)O[C@H](CO)[C@H]1O2,viability index,[1],1.052 ± 0.0051
N#Cc1ccc(-c2ccc([C@H]3[C@@H](CO)N4C(=O)CNC[C@@H]34)cc2)cc1,viability index,[1],0.965 ± 0.1
Cc1ccc(S(=O)(=O)Nc2ccc3c(c2)C(=O)N([C@H](C)CO)C[C@H](C)[C@H](CN(C)S(=O)(=O)c2cccs2)OCCCC[C@@H](C)O3)cc1,viability index,[1],1.14 ± 0.096
CO[C@H]1CC[C@H]2CCN(C)C(=O)[C@H](C)N(C)C(=O)c3cccc(C#N)c3OC[C@H]1O2,viability index,[1],1.07 ± 0.063
CCS(=O)(=O)N1CCCCN2[C@H](CO)[C@H](c3ccc(-c4ccc(C(=O)N(C)C)cc4)cc3)[C@H]2C1,viability index,[1],1.07 ± 0.13
C[C@@H]1CN([C@@H](C)CO)C(=O)c2cc(N(C)C)ccc2O[C@@H](C)CCCCO[C@@H]1CN(C)S(=O)(=O)c1cn(C)cn1,viability index,[1],1.18 ± 0.046
C[C@H](NC(=O)C[C@H]1C=C[C@H](NS(=O)(=O)c2cccc(F)c2)[C@H](CO)O1)c1ccccc1,viability index,[1],1.14 ± 0.087
COCCNC[C@@H]1[C@@H](c2ccccc2)[C@@H](CO)N1c1nc(C)c(C)s1,viability index,[1],0.956 ± 0.049
C[C@@H](NC(=O)C[C@H]1CC[C@H]2[C@@H](COC[C@H](O)CN2Cc2ccc(C(F)(F)F)cc2)O1)c1ccccc1,viability index,[1],1.047 ± 0.0052
O=C(c1cnccn1)N1CC(=O)N2[C@H](CO)[C@@H](c3ccc(C#CC4CC4)cc3)[C@H]2C1,viability index,[1],1.09 ± 0.074
CN(C)C(=O)C[C@H]1CC[C@@H]2[C@H](COC[C@@H](O)CN2C(=O)C2CCOCC2)O1,viability index,[1],1.08 ± 0.026
COc1cccc(CNC(=O)[C@H]2[C@H](CO)[C@H]3Cn4c(cccc4=O)[C@@H]2N3C(=O)C2CCCC2)c1,viability index,[1],0.987 ± 0.063
C[C@H]1CN([C@@H](C)CO)C(=O)CCCn2cc(nn2)CO[C@@H]1CN(C)C(=O)CCC(F)(F)F,viability index,[1],0.944 ± 0.023
COc1cccc(-c2ccc([C@@H]3[C@H]4CN(C(=O)c5cccnc5)CC(=O)N4[C@H]3CO)cc2)c1,viability index,[1],0.983 ± 0.02
O=C(Nc1ccc2c(c1)[C@H]1C[C@H](CC(=O)N3CCc4ccccc4C3)O[C@@H](CO)[C@H]1O2)c1ccc2c(c1)OCO2,viability index,[1],1.1 ± 0.031
O=C(Cc1ccccc1)N1CC[C@@H]2[C@H]1c1cc(C#Cc3cccc(F)c3)ccc1N[C@@H]2CO,viability index,[1],1.1 ± 0.033
O=C(C[C@H]1C=C[C@H](NC(=O)Cc2cccnc2)[C@@H](CO)O1)NCc1ccc2c(c1)OCO2,viability index,[1],1.2 ± 0.026
O=C1CN(S(=O)(=O)Cc2ccccc2)C[C@@H]2[C@H](c3ccc(C#Cc4ccccc4)cc3)[C@@H](CO)N12,viability index,[1],0.906 ± 0.019
CN1C(=O)c2cc(NS(=O)(=O)c3cccc(F)c3)ccc2OC[C@H]2O[C@H](CC(=O)NCCN3CCCCC3)CC[C@@H]21,viability index,[1],1.007 ± 0.0079
COc1ccc2c3c([C@H](CO)N(Cc4cccnc4)C[C@]33CN(C3)C(=O)c3cccnc3)n(C)c2c1,viability index,[1],1.02 ± 0.028
COC(=O)C[C@@H]1CC[C@@H]2[C@H](COc3ccc(NS(=O)(=O)c4ccc(C)cc4)cc3C(=O)N2C)O1,viability index,[1],1.1 ± 0.069
C[C@H]1CCCCO[C@H](CN(C)CC2CC2)[C@@H](C)CN([C@@H](C)CO)C(=O)c2cc(NC(=O)c3ccccc3)ccc2O1,viability index,[1],1.073 ± 0.0049
CN(C)CC(=O)N1[C@H](C#N)[C@H](c2ccccc2-c2ccccc2F)[C@H]1CO,viability index,[1],1.11 ± 0.12
COc1ccc2c3c([nH]c2c1)[C@H](CO)N(C[C@]31CN(C1)C(=O)Nc1c(C)noc1C)C(=O)Nc1ccc(F)cc1,viability index,[1],1.121 ± 0.0049
COCC(=O)Nc1ccc2c(c1)[C@@H]1C[C@H](CC(=O)NCc3ccc4c(c3)OCO4)O[C@H](CO)[C@@H]1O2,viability index,[1],1.12 ± 0.077
CO[C@H]1CC[C@@H]2CCN(C)C(=O)CCCN(C)C(=O)c3cc(C#N)ccc3OC[C@H]1O2,viability index,[1],0.989 ± 0.033
COc1cccc(-c2ccc([C@@H]3[C@H]4CNCC(=O)N4[C@H]3CO)cc2)c1,viability index,[1],1.07 ± 0.013
O=C(N[C@@H]1CC[C@@H](CCn2cc(-c3ccccc3F)nn2)O[C@@H]1CO)c1ccc2c(c1)OCO2,viability index,[1],1.126 ± 0.0065
O=C(NCCN1CCCCC1)[C@H]1N[C@H]2c3ccc(-c4cccnc4)c(=O)n3C[C@H]2[C@@H]1CO,viability index,[1],1 ± 0.083
COCC(=O)N1CC2(C1)[C@@H](c1ccccc1)[C@@H](CO)N2C(=O)NC1CCCC1,viability index,[1],0.975 ± 0.12
COc1ccc2c3c([nH]c2c1)[C@@H](CO)N(C[C@]31CCN(CC1)S(=O)(=O)c1cn(C)cn1)C(=O)Nc1ccc(F)cc1,viability index,[1],1.066 ± 0.004
C[C@H](NC(=O)C[C@H]1C=C[C@@H](NC(=O)c2cccnc2)[C@H](CO)O1)c1ccccc1,viability index,[1],1.061 ± 0.0091
COc1cccc(S(=O)(=O)N[C@@H]2CC[C@@H](CC(=O)NC3Cc4ccccc4C3)O[C@@H]2CO)c1,viability index,[1],1.06 ± 0.064
Cc1ccc(S(=O)(=O)N[C@H]2C=C[C@H](CC(=O)NCc3ccc(Cl)c(Cl)c3)O[C@H]2CO)cc1,viability index,[1],0.88 ± 0.074
COCCNC(=O)C[C@H]1C[C@@H]2c3cc(NC(=O)CN(C)C)ccc3O[C@@H]2[C@H](CO)O1,viability index,[1],1.112 ± 0.0086
CCC(=O)N1C[C@@H]2[C@H](c3ccccc31)[C@H](CO)N2C(=O)CC1CC1,viability index,[1],1.06 ± 0.016
O=C(C[C@H]1CC[C@H](NC(=O)c2ccc3c(c2)OCO3)[C@H](CO)O1)NCc1ccc(Oc2ccccc2)cc1,viability index,[1],1.12 ± 0.056
COc1ccc2c3c([C@@H](CO)N(Cc4cccnc4)C[C@]33CCN(CC3)C(=O)NC(C)C)n(C)c2c1,viability index,[1],1 ± 0.033
CN1[C@H](C(=O)Nc2nccs2)[C@@H](CO)[C@@H]2Cn3c(ccc(-c4ccccc4F)c3=O)[C@@H]21,viability index,[1],1.05 ± 0.027
O=C(C[C@H]1C[C@H]2c3cc(NS(=O)(=O)c4ccc(F)cc4)ccc3O[C@H]2[C@H](CO)O1)NCCN1CCCCC1,viability index,[1],1.09 ± 0.044
CN1CCN(C(=O)C[C@H]2C[C@@H]3c4cc(NS(C)(=O)=O)ccc4O[C@@H]3[C@H](CO)O2)CC1,viability index,[1],1.01 ± 0.043
O=C(c1ccccc1F)N1CC(=O)N2[C@H](CO)[C@H](c3ccc(-c4cccnc4)cc3)[C@H]2C1,viability index,[2],0.742 ± 0.068
CN(C)C(=O)c1cccc(-c2ccc3n(c2=O)C[C@H]2[C@H](CO)[C@@H](C(=O)NCC4CC4)N[C@@H]32)c1,viability index,[1],1.08 ± 0.012
COc1ccc(CN(C)C[C@@H]2OCc3cnnn3CCCC(=O)N([C@H](C)CO)C[C@@H]2C)cc1,viability index,[1],0.963 ± 0.038
O=C1CCC(=O)N[C@@H](c2ccccc2)C/C=C\CCN1,viability index,[1],1.01 ± 0.087
CCc1nc(N2[C@H](CO)[C@H](c3ccccc3-c3ccc(F)cc3)[C@@H]2C#N)sc1C,viability index,[1],1.03 ± 0.12
CC(C)[C@@H]1CCc2cnnn2COC[C@H](Cc2ccccc2)NC1=O,viability index,[1],1.04 ± 0.017
CN(C)C(=O)c1cccc(-c2ccccc2[C@@H]2[C@@H](C#N)N(C(=O)C3CCCCC3)[C@@H]2CO)c1,viability index,[1],1.01 ± 0.017
C[C@H]1CN([C@@H](C)CO)C(=O)CCCn2nncc2CO[C@@H]1CN(C)C(=O)Nc1cccc(Oc2ccccn2)c1,viability index,[1],1.111 ± 0.0083
C[C@@H]1CN([C@H](C)CO)C(=O)Cc2cc(NS(=O)(=O)c3ccc(F)cc3)ccc2O[C@@H]1CN(C)Cc1ccncc1,viability index,[1],1 ± 0.033
COc1ccc(-c2ccc([C@@H]3[C@H]4CN(Cc5ccccc5)CC(=O)N4[C@H]3CO)cc2)cc1,viability index,[1],1.089 ± 0.0085
COc1ccc2c3c([nH]c2c1)[C@H](CO)N(CC1CC1)C[C@]31CCN(CC1)C(=O)Nc1cccc(F)c1,viability index,[1],1.01 ± 0.059
Cc1noc(C)c1NC(=O)N(C)C[C@@H]1Oc2cc(C#CCN(C)C)ccc2S(=O)(=O)N([C@H](C)CO)C[C@H]1C,viability index,[1],1.02 ± 0.17
CN1c2ccc(-c3ccccc3F)cc2[C@H]2[C@H](CCN2C(=O)Nc2cc(F)ccc2F)[C@H]1CO,viability index,[1],1.077 ± 0.0071
COc1ccccc1S(=O)(=O)N[C@H]1C=C[C@H](CC(=O)N2CCOCC2)O[C@H]1CO,viability index,[1],1.1 ± 0.077
CCCNC(=O)N1C[C@@H](C)[C@@H](OC)CN(C)C(=O)c2ccc(NC(=O)CC)cc2OC[C@H]1C,viability index,[1],1.055 ± 0.0082
CCS(=O)(=O)N1CCCCN2[C@@H](CO)[C@@H](c3ccc(-c4ccc(C(=O)N(C)C)cc4)cc3)[C@@H]2C1,viability index,[1],1.07 ± 0.067
C[C@@H]1CN([C@H](C)CO)C(=O)c2cc(NC(=O)c3ccncc3)ccc2O[C@@H](C)CCCCO[C@H]1CN(C)Cc1ccc(Cl)c(Cl)c1,viability index,[1],1.09 ± 0.036
Cc1noc(C)c1NC(=O)N(C)C[C@H]1OCc2cn(nn2)CCCC(=O)N([C@H](C)CO)C[C@H]1C,viability index,[1],1.07 ± 0.033
O=C([C@H]1N[C@H]2c3ccc(-c4ccc(F)cc4)c(=O)n3C[C@H]2[C@@H]1CO)N1CCc2ccccc2C1,viability index,[1],1.02 ± 0.026
C[C@@H]1CN([C@@H](C)CO)C(=O)c2cccc(NS(=O)(=O)c3cn(C)cn3)c2O[C@H]1CN(C)Cc1ccc(Oc2ccccc2)cc1,viability index,[1],0.967 ± 0.069
CNC[C@H]1OCc2cnnn2CCCC(=O)N([C@H](C)CO)C[C@H]1C,viability index,[1],1.09 ± 0.076
CCCNC(=O)C[C@@H]1CC[C@H]2[C@@H](COC[C@H](O)CN2C(=O)Nc2ccc(Cl)c(Cl)c2)O1,viability index,[1],1.12 ± 0.13
CO[C@H]1CN(C)C(=O)c2cc(NC(=O)c3ccc(F)cc3)ccc2OC[C@@H](C)N(C(=O)CC2CC2)C[C@H]1C,viability index,[1],1.099 ± 0.004
COCC(=O)N1CC(=O)N2[C@@H](CO)[C@H](c3ccc(C#CC4CC4)cc3)[C@@H]2C1,viability index,[1],1.11 ± 0.072
O=C(CN1CCOCC1)N1CC[C@@H]2[C@@H](CO)Nc3ccc(-c4ccccc4F)cc3[C@@H]21,viability index,[1],1.111 ± 0.0091
COc1ccc2c3c([C@H](CO)N(C[C@]33CN(CC4CCOCC4)C3)C(=O)c3ccc(F)cc3)n(C)c2c1,viability index,[1],0.992 ± 0.016
